Measurements from PMC12136788.
The list shows a part of the results.

T1: UNK ZnF1-3 (human, UniProt Q9C0B0 31-174)
T1 sequence: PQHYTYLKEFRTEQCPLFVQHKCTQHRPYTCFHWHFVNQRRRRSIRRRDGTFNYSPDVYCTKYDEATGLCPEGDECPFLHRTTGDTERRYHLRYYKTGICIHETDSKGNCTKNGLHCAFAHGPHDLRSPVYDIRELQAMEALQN

B1: chr8:117878989:117878990:-_ENSG00000164754_ENST00000297338|hu_hu|hu_hu_hu_mus_True|38_68 (ssRNA)
RNA: GGGAGUUCUACAGUCCGACGAUCCCAGAGGCCCUCGUUUACUGAGGACAAAAUGUGCGUAGAACAUUGUUCUGGCUUGCUAUGAAAUAAGAAGAAAACCUUGCUCUGGCGGGGAGCCGGGAGGGGUGGGUGGCCCGGGGAGGGCAACAGAGGAUUGAGCAUCA
B2: 115632485_115632605_2900_3pUTR_ENSG00000148158_ENST00000374232|human|control|control (ssRNA)
RNA: GGGAGUUCUACAGUCCGACGAUCUCUGAAGCAGCGCCUUAACACAGCUGUUUCAUUAAAAAUAAACAACAAAAAAACUACUGCUUAUUUGAGGCUCAGAUUCGUAGUUUUACAGGGAUGAGCCACAGAUGAAAGAACACAAACCAACAGAGGAUUGAGCAUCA
B3: 55018132_55019424_1508_CDS_ENSMUSG00000029777_ENSMUST00000003572|mouse|control|control (ssRNA)
RNA: GGGAGUUCUACAGUCCGACGAUCGAGAUACUCCAGCACUAGCUUUGCAUCCUUCUUGUACGCCUUGCCCACGGCGCCCUUGUUGGGCUCAAACUGUACAACGUUAACUGUUUUGGGUUCUUUCAGAGGUUUCUCAGCUACUAGCAACAGAGGAUUGAGCAUCA
B4: 15130537_15131120_5856_CDS_ENSMUSG00000046111_ENSMUST00000161132|mouse|control|control (ssRNA)
RNA: GGGAGUUCUACAGUCCGACGAUCAUCUGUGAUUUCAUAACUUAAGAAGCUUCCAGUAGAAACAGUUACUGAAGACAAUGGCUCCUGAGAAAUCUCUUGUGUUUCAGCCUCAUCGUCUGGCUUUCCAAGUGGACCCAGGUUUGUCAACAGAGGAUUGAGCAUCA
B5: chr20:57570089:57570090:+_ENSG00000101158_ENST00000344018|hu_hu|FALSE|FALSE (ssRNA)
RNA: GGGAGUUCUACAGUCCGACGAUCAAAAUUUACUUAUUACUUGUUCUUAGCAAAUUAAGACAAUUACAAUAAAACAUCAGCUAACUGGGUUCUUGUGAGAAAACUGAGGUCAGCUUGGAAAGGAGUUCCCCGAGUGGAGUUCCCCAACAGAGGAUUGAGCAUCA
B6: chr19:16212804:16212805:+_ENSG00000167460_ENST00000300933|hu_mus|hu_hu_hu_mus_False|8_108 (ssRNA)
RNA: GGGAGUUCUACAGUCCGACGAUCAACAAAUAUGCAAUGAAGGAAAGAUGUAACAUGGAACAGCAUUAAAGCUCAGUCAGAAGGCACAUGGGCAACAAUGAUCACCCCAGCAUUCUCGCUUGGAAUGUGCUUGAGAAAUCUGUUCAACAGAGGAUUGAGCAUCA
B7: chr10:76910771:76910772:+_ENSG00000156671_ENST00000542569|perfect_dup|motif|central (ssRNA)
RNA: GGGAGUUCUACAGUCCGACGAUCCAUGUCAGGCACUCGCUCAUGGACUAUAACCAUAAUGAAAGAUGUAAAUCCAAAUACGGUAAAAACAUAUAUACAACUCAGUAUAGUCUUCCAGUAUUCUGGGUCCAAUCUUCGAACAGACAACAGAGGAUUGAGCAUCA
B8: chr3:94683992:94683993:+_ENSMUSG00000038902_ENSMUST00000107270|mus_hu|FALSE|FALSE (ssRNA)
RNA: GGGAGUUCUACAGUCCGACGAUCGUUAAUGUUGCCAUCGGGGCCAGGCAGAACACUAGCCACCAGGAAGGAGCGCUGAACUAGCUCUGGACAGUCCCCAAUGACACCUAGCACUUCACCCAGCCAGACAAGCACCAGCUGAAGCAACAGAGGAUUGAGCAUCA
B9: chr5:37680062:37680063:+_ENSMUSG00000029121_ENSMUST00000031004|mus_hu|mus_mus_mus_hu_False|48_98 (ssRNA)
RNA: GGGAGUUCUACAGUCCGACGAUCUUUGGGUGUAGCUGGCACCUCGUACACAGGACCGUCAUACAUGCCCCUGGAAACCCCUUGCAACCCGAAAACCUUAUUCCUGAUUUUGACGCGCUGGUACAGGUGCUCCGGGAACGCCUUCAACAGAGGAUUGAGCAUCA
B10: chr11:108017000:108017001:+_ENSG00000075239_ENST00000265838|hu_hu|motif|central (ssRNA)
RNA: GGGAGUUCUACAGUCCGACGAUCAUUCACUUUUUGGGGAUCAAUCUCCAACAUUUUAAUGUUUGCUAGUACAACCAGACGGAAGGCUUCAUUUACUUCCCACAUUGCAAUAUCUUCUUUUUUCAAUCCCACAUCUUUAAGAACCAACAGAGGAUUGAGCAUCA
B11: chr2:219460011:219460012:+_ENSG00000144580_ENST00000542068|hu_hu|FALSE|FALSE (ssRNA)
RNA: GGGAGUUCUACAGUCCGACGAUCAGCUAAUACUGCUCAAGUACAAUCAUGAAGACAGAUGGAGCUGCUGAAAUUCACACUAAAACAAAGAAAAGGAUCAAGUGGACUGUCACCUUAAUCCCAAGCACCUCCCUUUUAGAGUUACAACAGAGGAUUGAGCAUCA
B12: chr9:69863160:69863161:+_ENSMUSG00000033543_ENSMUST00000118198|mus_hu|FALSE|FALSE (ssRNA)
RNA: GGGAGUUCUACAGUCCGACGAUCCUGUAUGAGCUCAUCUAGGCUCUCCUGAAGACUGUUUCCCAAAGUAGUAUUUCUGUAUAACUGAUAUGCCAUGGCUUAGGAGGAAGAAUUUGUUUUUCUUAUUCAAGCUUGCAUUGAUGUCAACAGAGGAUUGAGCAUCA
B13: 46082053_46083164_2037_CDS_ENSG00000132780_ENST00000537798|human|control|control (ssRNA)
RNA: GGGAGUUCUACAGUCCGACGAUCUUUCCGGGGACUCUCUUCCUCUGGUUUCCUCUUCUUUCUGACAAGGUGGGAAAUAUCAGUCACACAAUUUGAUGAGGAAGCACCGUCUGUUGGCUUUCUACUGGCAAUCAUGGAGACUGACAACAGAGGAUUGAGCAUCA
B14: chr1:39494447:39494448:+_ENSG00000168653_ENST00000372967|hu_mus|hu_hu_hu_mus_False|48_68 (ssRNA)
RNA: GGGAGUUCUACAGUCCGACGAUCGCACCGAGCGGCGUUCUUAUAGGGCUGUUCUGCGCUUAGGAACGUCAACCAUCGGUCCAGGCUAAGGCCGAACUUUUUCUGUAUGUCAAGGAAAGGCAUGGCUCUGCAGUGCCCUUGUCACAACAGAGGAUUGAGCAUCA
B15: chr11:32953859:32953860:+_ENSG00000060749_ENST00000399302|hu_hu|motif|central (ssRNA)
RNA: GGGAGUUCUACAGUCCGACGAUCAUCUCCAAUUGGGCUACAGGAUAAAGAUGACUGCCUGGUUGUUUCCUGAAAAUUAACGGCACUUGAAUUUGAUAGAUAACUAUGUAAGGAGUGCUGUGAACCAGUCAGUUGUGCCUGAAUCAACAGAGGAUUGAGCAUCA
B16: 21755467_21758637_925_3pUTR_ENSMUSG00000047368_ENSMUST00000052556|mouse|control|control (ssRNA)
RNA: GGGAGUUCUACAGUCCGACGAUCUCCCGUGAAUUAUUAAUACUGGAGAGGUUAUCUUAGAGAUUUUGUCAAUGUUUGGGAAUGCAUCAAAACAGUAGGUCUUCUUAGUAUCAGGGAAAGCAACUCGCAUUCCUGAGGUGAGAGCAACAGAGGAUUGAGCAUCA
B17: chr2:32640116:32640117:+_ENSG00000115760_ENST00000421745|hu_hu|FALSE|FALSE (ssRNA)
RNA: GGGAGUUCUACAGUCCGACGAUCUUCUGAUAUACUUUCACCCUGAGUUCUGCUUAAACCAUCCAGUGACCUGUGAGAAUUACUACUAAUGGGUGAGGUAGCAGGAGAUUUAUAUGUUAAUAAACCUCCAGCUAAUAAACAUGGCAACAGAGGAUUGAGCAUCA
B18: chr7:56126341:56126342:+_ENSG00000146731_ENST00000540286|hu_mus|hu_hu_hu_mus_True|1_78 (ssRNA)
RNA: GGGAGUUCUACAGUCCGACGAUCCAUGUUUCUCCUCUUGGCUCUGCGCAGAGCUACUAUGCCUUCUUUCGCAAGGGCAUCUAAGGAAAAGGGGUCAAUCCCCUUUUGAUUAAUAACGACAAAUCCUUUAUCUGAGUCGCCACACAACAGAGGAUUGAGCAUCA
B19: 154243910_154245291_2018_CDS_ENSG00000109654_ENST00000338700|human|control|control (ssRNA)
RNA: GGGAGUUCUACAGUCCGACGAUCAUGAUUAUGGAAAUCUGUAAUAAUAAUCUCAUUAUUGCUAUUUACAGCUGCAAAAUGGGGACCUGCAAACUGCCUGUCCCCAUUUCCUCGGCUACCAAACCUGGUGACUAUUUUCCCGUUCAACAGAGGAUUGAGCAUCA
B20: chr1:244855233:244855234:+_ENSG00000121644_ENST00000302550|hu_mus|hu_hu_hu_mus_True|38_108 (ssRNA)
RNA: GGGAGUUCUACAGUCCGACGAUCCAUUAAAUGAUAAGCGUUGCCCUUAUACUCUUUCCCCAGUUCUUCUACAAUUUUCUCUAUAUCAUCUUCUAGAAAGUCCGUGCUUCCUAGAACAACAGCUUCUUUAAAUUUAAAUGUUUCCAACAGAGGAUUGAGCAUCA
B21: chr2:73747301:73747302:-_ENSMUSG00000018770_ENSMUST00000018914|mus_mus|FALSE|FALSE (ssRNA)
RNA: GGGAGUUCUACAGUCCGACGAUCAUAACCAAUGAUAAGACUGCCAAAGACUGUUCCAAUACCAGCACCAGAACCAGCAACUCCUACUGUUGCAGCACCUGCACCAAUGAAUUUGGCAGCAGUAUCAAUGUCUCUGCUGAUUACCAACAGAGGAUUGAGCAUCA
B22: chr4:110743517:110743518:+_ENSG00000109534_ENST00000226796|hu_mus|FALSE|FALSE (ssRNA)
RNA: GGGAGUUCUACAGUCCGACGAUCUUUCUCACCAGGAGGACGAGGCAGAAACCUCUGCAGCGGCAGCAGCUUGUAUGGGUCUAUAUAGAACUUCUGUAGCUUUUUAAAGGAAGAUGCCUUCAUGUUUUCUGACAACUUAACUGACAACAGAGGAUUGAGCAUCA

The binders below were run against T1, UNK ZnF1-3 (assay: nsRBNS (natural sequence RNA bind-n-seq); RBNS binding buffer (assumed for nsRBNS): 25 mM Tris pH 7.5, 150 mM KCl, 3 mM MgCl2, 0.01% Triton X-100, 500 ug/ml BSA, 20 U/ml SUPERase-In, 4 C; UNK is unkempt and MSI1 is Musashi-1; names of the RNAs are library labels; protein concentration not given here; high values mean tight binding).
For B1, the binding signal was 1.81 enrichment R.
For B2, the binding signal was 1.61 enrichment R.
Binder B3 has a binding signal of 0.781 enrichment R.
In the case of B4, the binding signal is reported as 0.993 enrichment R.
B5 gave a binding signal of 1.02 enrichment R.
B6 gave a binding signal of 1.23 enrichment R.
With B7 the binding signal was 1.05 enrichment R.
Binder B8 has a binding signal of 1.02 enrichment R.
With B9 the binding signal was 0.714 enrichment R.
Work on B10 yielded a binding signal of 0.791 enrichment R.
In the case of B11, the binding signal is reported as 1.6 enrichment R.
Binder B12 has a binding signal of 1.06 enrichment R.
Work on B13 yielded a binding signal of 0.76 enrichment R.
With B14 the binding signal was 0.494 enrichment R.
With B15 the binding signal was 0.788 enrichment R.
With B16 the binding signal was 1.61 enrichment R.
For B17, the binding signal was 1.12 enrichment R.
With B18 the binding signal was 0.657 enrichment R.
Binder B19 has a binding signal of 0.455 enrichment R.
Binder B20 has a binding signal of 1.37 enrichment R.
B21 was tested, and the binding signal was 1.04 enrichment R.
For B22, the binding signal was 1.19 enrichment R.
